About 16,000 (4.4%) of roughly 360,000 compounds were called active. The shares of active, inactive and inconclusive entries below differ from those in the screen. Calls come from the whole dose curve; as a rule, active = well fitted inhibition curve with a large enough effect; inconclusive = small, poorly fitted or top-dose-only effect; inactive = no such curve, though single readings can be large or run the other way. Where the call is inconclusive, the potency comes from a doubtful curve fit.
target: Bromodomain adjacent to zinc finger domain protein 2B (Homo sapiens) (UniProt Q9UIF8); test: qHTS Assay for Inhibitors of BAZ2B; details: AlphaScreen BAZ2B-H3K14Ac peptide displacement; series mostly up to 114 µM; note: nearly all actives have a fitted effect of over 60% in size
Outline: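 AlphaScreen displacement: compounds (up to 110uM) incubated 30 min at room temperature with a preformed 50 nM BAZ2B/50 nM biotinylated H3K14Ac peptide complex in PBS pH 7.4 with Tween-20. Donor and acceptor beads at 10 ug/mL final added, 20 min light-protected before reading.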
Potency is the fitted concentration of half-maximal effect; tags give direction and shape of the fitted curve.

UniProt Q9UIF8, sequence (Q9UIF8 whole entry, looked up, the tested form may be a part): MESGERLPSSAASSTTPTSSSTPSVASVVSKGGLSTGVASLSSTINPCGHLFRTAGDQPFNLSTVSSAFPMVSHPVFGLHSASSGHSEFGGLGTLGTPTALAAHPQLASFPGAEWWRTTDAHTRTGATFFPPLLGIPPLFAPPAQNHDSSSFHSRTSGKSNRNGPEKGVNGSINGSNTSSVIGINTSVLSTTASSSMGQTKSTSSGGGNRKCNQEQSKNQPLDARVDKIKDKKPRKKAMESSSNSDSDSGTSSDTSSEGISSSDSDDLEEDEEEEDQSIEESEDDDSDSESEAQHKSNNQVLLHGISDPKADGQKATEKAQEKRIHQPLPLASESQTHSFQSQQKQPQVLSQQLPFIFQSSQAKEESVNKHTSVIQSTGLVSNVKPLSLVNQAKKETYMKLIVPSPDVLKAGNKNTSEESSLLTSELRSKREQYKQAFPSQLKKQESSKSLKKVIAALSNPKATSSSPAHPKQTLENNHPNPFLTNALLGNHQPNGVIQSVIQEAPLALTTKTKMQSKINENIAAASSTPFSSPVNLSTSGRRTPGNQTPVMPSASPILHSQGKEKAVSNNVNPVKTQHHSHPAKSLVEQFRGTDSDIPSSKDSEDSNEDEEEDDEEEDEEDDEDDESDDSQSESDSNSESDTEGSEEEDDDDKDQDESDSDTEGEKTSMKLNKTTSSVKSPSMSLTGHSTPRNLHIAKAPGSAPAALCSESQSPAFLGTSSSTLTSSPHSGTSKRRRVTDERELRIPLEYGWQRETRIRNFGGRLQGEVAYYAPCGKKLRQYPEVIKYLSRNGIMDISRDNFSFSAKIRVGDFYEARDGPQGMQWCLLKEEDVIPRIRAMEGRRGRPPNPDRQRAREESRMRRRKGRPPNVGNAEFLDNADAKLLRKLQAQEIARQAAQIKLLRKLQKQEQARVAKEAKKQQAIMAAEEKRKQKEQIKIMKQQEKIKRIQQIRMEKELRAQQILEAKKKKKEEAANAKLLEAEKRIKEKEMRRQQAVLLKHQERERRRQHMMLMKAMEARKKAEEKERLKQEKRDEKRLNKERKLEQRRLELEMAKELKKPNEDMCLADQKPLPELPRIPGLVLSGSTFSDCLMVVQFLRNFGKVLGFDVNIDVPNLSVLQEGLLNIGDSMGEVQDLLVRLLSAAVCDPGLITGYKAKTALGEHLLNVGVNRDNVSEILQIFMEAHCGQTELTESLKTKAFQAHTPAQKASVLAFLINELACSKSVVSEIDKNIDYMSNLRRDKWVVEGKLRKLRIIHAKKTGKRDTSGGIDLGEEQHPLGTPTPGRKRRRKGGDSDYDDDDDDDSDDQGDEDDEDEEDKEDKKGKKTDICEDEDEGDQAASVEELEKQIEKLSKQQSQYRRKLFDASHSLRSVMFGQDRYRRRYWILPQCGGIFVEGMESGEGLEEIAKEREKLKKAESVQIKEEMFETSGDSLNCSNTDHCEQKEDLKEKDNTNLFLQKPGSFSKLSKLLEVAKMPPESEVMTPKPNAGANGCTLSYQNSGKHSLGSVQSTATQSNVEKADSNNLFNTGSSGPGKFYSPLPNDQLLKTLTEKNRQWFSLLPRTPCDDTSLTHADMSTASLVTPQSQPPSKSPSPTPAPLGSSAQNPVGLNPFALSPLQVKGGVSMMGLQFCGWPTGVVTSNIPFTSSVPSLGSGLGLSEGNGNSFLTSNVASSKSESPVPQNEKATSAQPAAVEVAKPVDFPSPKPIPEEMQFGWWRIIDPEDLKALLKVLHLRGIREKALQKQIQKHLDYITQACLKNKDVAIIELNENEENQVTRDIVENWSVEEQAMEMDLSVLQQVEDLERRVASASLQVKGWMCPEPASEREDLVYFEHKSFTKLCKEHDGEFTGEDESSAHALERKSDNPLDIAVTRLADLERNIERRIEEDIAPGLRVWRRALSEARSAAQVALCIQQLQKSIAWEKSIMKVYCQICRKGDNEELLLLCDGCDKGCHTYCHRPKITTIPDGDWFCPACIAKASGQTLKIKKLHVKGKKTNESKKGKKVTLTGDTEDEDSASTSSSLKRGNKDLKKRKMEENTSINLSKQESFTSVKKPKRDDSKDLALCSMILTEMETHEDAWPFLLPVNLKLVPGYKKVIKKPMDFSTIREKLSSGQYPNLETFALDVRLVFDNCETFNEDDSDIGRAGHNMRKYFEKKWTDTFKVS

**Q.** Which Potency does the source give for `FC(F)(F)c1cccc(N2CCN(CC3CC4C=CC3C4)CC2)c1` (configuration not stated) here?
**A.** inconclusive: 89.1 µM [inhibitor, single point]

**Q.** With `Nc1cc(N2CCCCC2)c([N+](=O)[O-])cc1Cl` as the compound, how does the Potency read?
**A.** inconclusive: 89.1 µM [inhibitor, single point]

**Q.** How did the Potency turn out when `O=C(COc1ccc(Cl)cc1)Nc1ccc(N2CCN(C(=O)c3ccco3)CC2)cc1` was run?
**A.** inconclusive: 89.1 µM [inhibitor, single point]

**Q.** For `Cc1c2cnn(CC(=O)NCCCN3CC(C)CC(C)C3)c(=O)c2c(C)n1Cc1ccc(Cl)cc1` (configuration not stated), which Potency is on record?
**A.** inconclusive: 79.4 µM [inhibitor, single point]

**Q.** Which Potency does the source give for `CNc1sc(C(=O)c2ccccc2F)c(N)c1-c1nc2ccccc2s1` here?
**A.** active: 39.8 µM

**Q.** How did the Potency turn out when `Cc1nc(C)c(C(=O)NNC(=O)Nc2ccc(Cl)cc2)s1` was run?
**A.** inactive

**Q.** With `COc1cc(N=Nc2c(C)n(C)n(-c3ccccc3)c2=O)ccc1N` as the compound, how does the Potency read?
**A.** inactive

**Q.** With `CC1CCCC(C)N1CC(O)COCc1ccccc1F` (configuration not stated) as the compound, how does the Potency read?
**A.** inconclusive: 89.1 µM [inhibitor, single point]

**Q.** With `COc1cc(/C=C2\SC(N)=NC2=O)cc(Br)c1O` as the compound, how does the Potency read?
**A.** inconclusive: 89.1 µM [inhibitor, partial curve]

**Q.** Which Potency does the source give for `O=C(OCC(=O)N1CCCc2ccccc21)c1cc(S(=O)(=O)N2CCOCC2)ccc1O` here?
**A.** inactive

**Q.** How did the Potency turn out when `COc1ccc(-c2cc(C(=O)NCC3CCCO3)c3cc(C(C)C)ccc3n2)cc1` (configuration not stated) was run?
**A.** inconclusive: 89.1 µM [inhibitor, single point]

**Q.** Which Potency does the source give for `COCCNc1nnc(SCC(=O)NNC(=O)c2ccc([N+](=O)[O-])cc2)s1` here?
**A.** inactive

**Q.** How did the Potency turn out when `CC(C)(C)OC(=O)CNC(=O)c1[nH]cnc1C(=O)NCCCCCNC(=O)OC(C)(C)C` was run?
**A.** inconclusive: 56.2 µM [inhibitor, partial curve]

**Q.** `Cc1cc(C(=O)COC(=O)c2ccc[nH]c2=O)c(C)n1-c1ccccc1` was tested. Which Potency did it give?
**A.** inconclusive: 89.1 µM [inhibitor, single point]

**Q.** Which Potency does the source give for `COc1ccc(C(=O)NC(=S)Nc2ccccc2N2CCOCC2)cc1[N+](=O)[O-]` here?
**A.** inconclusive: 39.8 µM [inhibitor, full curve, poor fit]

**Q.** `CCOc1cc(/C=C2\CN(CC)C/C(=C\c3ccc(O)c(OCC)c3)C2=O)ccc1O` was tested. Which Potency did it give?
**A.** active: 50.1 µM

**Q.** With `Cc1ccc(N2CC(C(=O)NCc3ccco3)CC2=O)cc1Cl` (configuration not stated) as the compound, how does the Potency read?
**A.** inconclusive: 44.7 µM [inhibitor, partial curve]

**Q.** How did the Potency turn out when `CC(=C/c1ccccc1)/C=N/n1c(C)n[nH]c1=S` was run?
**A.** inactive

**Q.** With `COc1ccc(CCn2c(C)cc(C(=O)COC(=O)c3cnccn3)c2C)cc1` as the compound, how does the Potency read?
**A.** inconclusive: 50.1 µM [inhibitor, partial curve]

**Q.** For `CC1=CC(c2ccc(Cl)cc2)n2nc(NC(=O)CCC(=O)O)nc2N1` (configuration not stated), which Potency is on record?
**A.** active: 50.1 µM

**Q.** With `CCCC1(C(=O)O)NC(c2cccc(OC)c2O)C2C(=O)N(c3ccccc3)C(=O)C21` (configuration not stated) as the compound, how does the Potency read?
**A.** inconclusive: 7.94 µM [inhibitor, full curve, poor fit]

**Q.** How did the Potency turn out when `CCN1CCN(c2cc(SC(C)C)nc(-c3ccc(OC)cc3)n2)CC1` was run?
**A.** inconclusive: 50.1 µM [inhibitor, partial curve]

**Q.** For `Cc1ccc(C(=O)OCC(=O)NN2C(=O)NC3(CCC(C)CC3)C2=O)cc1` (configuration not stated), which Potency is on record?
**A.** inactive

**Q.** With `O=C(O)[C@@H](c1ccccc1)N1Cc2ccccc2C1=O` as the compound, how does the Potency read?
**A.** active: 20 µM

**Q.** With `Oc1ccc(Br)cc1/C=N/n1c(C2CCCCC2)n[nH]c1=S` as the compound, how does the Potency read?
**A.** inconclusive: 39.8 µM [inhibitor, partial curve]

**Q.** For `CN(CC(=O)Nc1ccc(N2CCOCC2)cc1)CC(=O)Nc1ccc([N+](=O)[O-])cc1Br`, which Potency is on record?
**A.** inactive

**Q.** For `C#CC(C)(CC)NC(=O)Cn1nnc(-c2ccc(OCc3c(F)cccc3Cl)cc2)n1` (configuration not stated), which Potency is on record?
**A.** inconclusive: 89.1 µM [inhibitor, single point]

**Q.** Which Potency does the source give for `COc1cc(NC(=O)CN(c2cc(C)cc(C)c2)S(=O)(=O)c2c(C)[nH]c(=O)[nH]c2=O)cc(OC)c1` here?
**A.** inconclusive: 79.4 µM [inhibitor, single point]

**Q.** `Cc1ccc(S(=O)(=O)/N=C2\C=C(Nc3cccc(C(=O)O)c3)C(=O)c3ccccc32)cc1` was tested. Which Potency did it give?
**A.** active: 12.6 µM

**Q.** Which Potency does the source give for `Cc1ccc(-c2nn(-c3ccccc3)cc2CN(Cc2ccccc2)C(=O)c2ccco2)o1` here?
**A.** active: 31.6 µM

**Q.** For `COc1ccccc1CC(=O)Nc1ccc(-c2noc(COc3ccc(Cl)c(C)c3)n2)cc1`, which Potency is on record?
**A.** inconclusive: 5.62 µM [inhibitor, full curve]

**Q.** With `O=c1cc(CSc2ccc(Cl)cc2)[nH]c2[nH]n(-c3ccccc3)c(=O)c12` as the compound, how does the Potency read?
**A.** active: 35.5 µM

**Q.** With `COc1ccc(Cc2c3cc(OC)c(OC)cc3cc[n+]2C)cc1OC` as the compound, how does the Potency read?
**A.** inactive

**Q.** Which Potency does the source give for `CCn1c2ccccc2c2cc(CN3CCN(S(C)(=O)=O)CC3)ccc21` here?
**A.** inconclusive: 50.1 µM [inhibitor, partial curve]

**Q.** `CC(C)C(=O)N1CCc2cc(-c3csc(N)n3)ccc21` was tested. Which Potency did it give?
**A.** inconclusive: 89.1 µM [inhibitor, single point]

**Q.** For `CC(C)c1ccc(C(O)c2nc3ccccc3n2C)cc1` (configuration not stated), which Potency is on record?
**A.** inconclusive: 79.4 µM [inhibitor, single point]

**Q.** With `Cc1c(Cl)cccc1NC(=O)C(C)n1c(=O)cc(C)c2c(C)nn(-c3ccccc3)c21` (configuration not stated) as the compound, how does the Potency read?
**A.** inactive

**Q.** For `Cc1ccccc1NC(=O)c1ccc(Nc2c([N+](=O)[O-])cc([N+](=O)[O-])c3ccccc23)cc1`, which Potency is on record?
**A.** inconclusive: 3.55 µM [inhibitor, full curve]

**Q.** How did the Potency turn out when `COc1cccc(CNC(=O)Cn2nc(N3CCN(c4ccccc4OC)CC3)ccc2=O)c1` was run?
**A.** inactive

**Q.** `Cn1cc(C=C2C(=O)CC(C)(C)CC2=O)c2ccccc21` was tested. Which Potency did it give?
**A.** inconclusive: 89.1 µM [inhibitor, single point]

**Q.** How did the Potency turn out when `Cc1ccn2cc(-c3cccc([N+](=O)[O-])c3)nc2c1` was run?
**A.** inconclusive: 89.1 µM [inhibitor, single point]

**Q.** How did the Potency turn out when `CCOC(=O)C1=C(N)Oc2cc(C)[nH]c(=O)c2C1c1ccncc1` (configuration not stated) was run?
**A.** inactive

**Q.** Which Potency does the source give for `O=C(Nc1ccccc1)Oc1ccccc1N1CCOCC1` here?
**A.** inconclusive: 25.1 µM [inhibitor, single point]

**Q.** `CCOC(=O)c1ccc(N2CCN(c3cc(C)ccc3C)CC2)c(N)c1` was tested. Which Potency did it give?
**A.** inconclusive: 50.1 µM [inhibitor, partial curve]

**Q.** For `O=C(NC(=S)NCc1ccccc1)c1ccccc1[N+](=O)[O-]`, which Potency is on record?
**A.** inconclusive: 79.4 µM [inhibitor, partial curve]

**Q.** For `COc1cccc(CNC(=O)CCc2c(C)c3ccc(O)c(C)c3oc2=O)c1`, which Potency is on record?
**A.** inactive

**Q.** How did the Potency turn out when `COc1ccc(-c2nc3cccc(C)n3c2NCc2ccco2)cc1OC` was run?
**A.** active: 50.1 µM

**Q.** With `Cc1ccc(-n2ncc(C(=O)NCCCN3CCc4ccccc4C3)c2C2CCN(C(=O)OC(C)(C)C)CC2)c(C)c1` as the compound, how does the Potency read?
**A.** inactive

**Q.** With `Cc1ccc(/C=C2/SC(=O)NC2=S)o1` as the compound, how does the Potency read?
**A.** active: 50.1 µM

**Q.** With `Cc1ccc2nc(N(CCN(C)C)C(=O)c3ccc4ccccc4c3)sc2c1` as the compound, how does the Potency read?
**A.** inconclusive: 39.8 µM [inhibitor, partial curve]

**Q.** `CCCCc1ccc(NC(=O)CSC2=C(C#N)C(c3ccco3)C3=C(CCCC3=O)N2)cc1` (configuration not stated) was tested. Which Potency did it give?
**A.** inconclusive: 35.5 µM [inhibitor, partial curve]

**Q.** Which Potency does the source give for `COc1cc(NS(=O)(=O)c2ccc(C)cc2C)cc(OC)c1OC` here?
**A.** inconclusive: 56.2 µM [inhibitor, partial curve]

**Q.** `CN1/C(=c2/s/c(=C3/C(=O)N(c4ccccc4)NC3=Nc3ccccc3)n(C)c2=O)C(C)(C)c2ccccc21` was tested. Which Potency did it give?
**A.** active: 10 µM

**Q.** How did the Potency turn out when `Cc1cc(C)n(-c2ccc([N+](=O)[O-])cc2-c2nn[nH]n2)n1` was run?
**A.** inconclusive: 89.1 µM [inhibitor, single point]

**Q.** For `CCOc1ccc(N(CC(=O)Nc2ccc(OC)cc2OC)S(=O)(=O)c2c(C)[nH]c(=O)[nH]c2=O)cc1`, which Potency is on record?
**A.** inconclusive: 89.1 µM [inhibitor, single point]

**Q.** How did the Potency turn out when `Clc1ccc(Cc2noc(CN3CCN(c4ccccc4)CC3)n2)c(Cl)c1` was run?
**A.** inactive

**Q.** How did the Potency turn out when `Cc1ccc(NC(=O)Cn2c(-c3nonc3N)nc3ccccc32)c(Br)c1` was run?
**A.** inactive

**Q.** With `CN(C)/N=C/c1c(O)ccc2ccccc12` as the compound, how does the Potency read?
**A.** active: 44.7 µM

**Q.** With `Cc1ccc(S(=O)(=O)N2CCN(C(=O)CN3CCCCC3)C2C(C)C)cc1` (configuration not stated) as the compound, how does the Potency read?
**A.** inactive

**Q.** With `Cc1ccc(N(C(=O)c2ccc3c(c2)OCO3)C2C=CS(=O)(=O)C2)cc1` (configuration not stated) as the compound, how does the Potency read?
**A.** inactive

**Q.** For `Cc1ccc(S(=O)(=O)c2nc(S(=O)(=O)CCO)sc2N2CCOCC2)cc1`, which Potency is on record?
**A.** inactive

**Q.** For `C/C(=N\NC(=O)c1ccc(NS(=O)(=O)c2cccs2)cc1)c1ccc(C(C)(C)C)cc1`, which Potency is on record?
**A.** inconclusive: 79.4 µM [inhibitor, single point]

**Q.** How did the Potency turn out when `O=C(/C=C/Nc1cccc(C(F)(F)F)c1)C(F)(F)F` was run?
**A.** inactive

**Q.** With `O=C1CC(c2ccco2)CC(O)=C1C=NCCN1CCN(C(=O)Nc2ccc(Cl)cc2)CC1` (configuration not stated) as the compound, how does the Potency read?
**A.** inactive

**Q.** `NS(=O)(=O)c1ccc(N=Nc2c(=O)[nH]n3c(=O)c4c([nH]c23)CCCC4)cc1` was tested. Which Potency did it give?
**A.** active: 28.2 µM

**Q.** `COc1ccc(C(=O)NCC(=O)N/N=C/c2ccc([N+](=O)[O-])s2)cc1OC` was tested. Which Potency did it give?
**A.** inconclusive: 79.4 µM [inhibitor, single point]

**Q.** How did the Potency turn out when `Cc1ccccc1NC(=O)c1cc(S(=O)(=O)Nc2cccc(C(=O)O)c2)ccc1Cl` was run?
**A.** inactive

**Q.** Which Potency does the source give for `Cc1ccc(-n2c(Cn3ncc4ccccc4c3=O)n[nH]c2=S)cc1` here?
**A.** inconclusive: 89.1 µM [inhibitor, single point]

**Q.** With `O=C(Nc1cccc(C(=O)Nc2ccc(Cl)cn2)c1)c1ccccc1` as the compound, how does the Potency read?
**A.** inactive

**Q.** How did the Potency turn out when `O=C(Nc1ccccc1F)c1ccc(Cn2cc(Br)cn2)cc1` was run?
**A.** inconclusive: 39.8 µM [inhibitor, single point]

**Q.** How did the Potency turn out when `Cc1cc(C)c(S(=O)(=O)NCc2ccc3c(c2)CCN3C(=O)c2ccccc2)c(C)c1` was run?
**A.** inactive

**Q.** `COc1ccc2c(C)c(CCC(=O)NCCc3ccccc3)c(=O)oc2c1` was tested. Which Potency did it give?
**A.** inactive
